The record followed here is ChEMBL document CHEMBL4888484, “Replenishing the malaria drug discovery pipeline: Screening and hit evaluation of the MMV Hit Generation Library 1 (HGL1) against asexual blood stage Plasmodium falciparum ,using a nano luciferase reporter read-out” (2022).

Among all 150,000 compounds or so, about 540 (0.36%) showed an effect of 50% or more. This is one part of the list.

The experiment has as its system Plasmodium falciparum. Nature of the experiment: Primary screen in NF54 nanoGlo assay, in single point, at 2uM, 72h; a lower Z score goes with more inhibition. In kind it is functional, Erythrocyte. The conditions noted are these: timepoint 72 hour.
The term % Inhibition denotes the drop in the measured response relative to a control, in per cent. Take `Cc1cnc(CNC(=O)[C@]2(c3ccccc3)CC23CCCC3)cn1`: the “% Inhibition” value is recorded as -4% and the Z score stood at 0.77.
Turning to `Cc1nc(CNS(=O)(=O)Cc2ccc(F)c(Cl)c2)sc1C`, the “% Inhibition” value came out at 34% and the Z score was -4.56.
In the case of `O=C(NC[C@H]1CCCS1(=O)=O)Nc1ccc(COC2CCCC2)cc1`, the “% Inhibition” value is recorded as -6% and the Z score was found to be 1.
On the same counts, the results for `CCOC(=O)[C@H]1CCCN(c2nc(-c3ccc4c(c3)OCO4)c3c(N)n(C)nc3n2)C1` are 4% and -0.48.
Regarding `CC1(C)COC[C@H](CS(=O)(=O)N(Cc2cccnc2)C2CC2)O1`, the “% Inhibition” value is reported as -5% and the Z score worked out at 0.52.
Consider `Cc1ccc(-n2cccn2)c(CN2CCC(c3cc(O)nc(C)n3)CC2)c1`, for which the “% Inhibition” value was -5% and the Z score amounted to 0.85.
As for `CS(=O)(=O)C1CN(S(=O)(=O)[C@H]2C[C@@H]2c2ccccc2)C1`, the “% Inhibition” value was determined as 4% and the Z score is -0.34.
As to `O=C(N[C@@]12COC[C@@H]1C2)c1cc2c(o1)CCCC2`, the “% Inhibition” value is -25% and the Z score came out at 2.72.
For the molecule `O=C(O)c1csc(CNC(=O)C2(c3ccc(F)cc3F)CCCC2)n1`, the “% Inhibition” value is given as -8% and the Z score is on record as 0.81.
On the same counts, the results for `C#Cc1cccc(N(C(=O)Cc2ccc(C)nc2)C(C)C)c1` are -7% and 0.91.
For `C[C@H](O)[C@H](NC(=O)c1ccccc1Nc1ccc(F)cc1)C(=O)OCc1ccccc1`, the “% Inhibition” value is reported as -10% and the Z score is on record as 1.6.
Regarding `O=C(NCC1(O)CCCC1)C(=O)Nc1cccc(N2CCCC2=O)c1`, the “% Inhibition” value is on record as -8% and the Z score amounted to 0.86.
As for `O=S(=O)(Cc1ccccc1)N1CC(N(Cc2ccccc2)C2CCOCC2)C1`, the “% Inhibition” value was -3% and the Z score stood at 0.55.
Take `Cc1cnc(-c2ccccc2)n1C[C@H]1CCCN(Cc2cccc(F)c2)C1`: the “% Inhibition” value is recorded as -5% and the Z score was found to be 0.65.
Regarding `Cn1c(N2CCCC2)c(C#N)c(=O)n(C)c1=O`, the “% Inhibition” value was -10% and the Z score is listed as 1.28.
For `Cc1cc(NC(=O)CN2CCN(Cc3ccc4c(c3)CCO4)CC2)on1`, the “% Inhibition” value worked out at 18% and the Z score is reported as -2.3.
As to `CC(C)COC(=O)c1cc(-c2cc(C(=O)OCC(C)C)c3ccccc3n2)nc2ccccc12`, the “% Inhibition” value is reported as -10% and the Z score stood at 1.36.
The corresponding values for `CN(CCOc1ccccc1Cl)CC(=O)N[C@H]1CCCc2ccccc21` are -5% and 0.8.
Regarding `Cc1nc(C)c(C(=O)N[C@](C)(c2ccc(Br)cc2)C(C)C)o1`, the “% Inhibition” value worked out at 30% and the Z score was -4.06.
On the same counts, the results for `CO[C@H]1CN(c2noc(-c3ccccc3)n2)CC[C@H]1N` are -12% and 2.29.
Regarding `COCC1(C2CCC2)CN(C(=O)Nc2ccc(F)cc2-c2cnn(C)c2)C1`, the “% Inhibition” value was -2% and the Z score came out at 0.37.
As to `CC(=O)NCCNC(=O)CCC(=O)N1CCc2c(Cl)cccc21`, the “% Inhibition” value was 35% and the Z score is recorded as -3.98.
With `CCCn1nccc1NC(=O)c1c(C)noc1C`, the “% Inhibition” value is on record as -1% and the Z score stood at 0.29.
In the case of `CC(C)(C)c1cc(CN2CC[C@H](NC(=O)c3ccccc3)[C@@H](O)C2)n[nH]1`, the “% Inhibition” value is recorded as 6% and the Z score is recorded as -1.17.
As for `CC[C@H]1CN(C(=O)c2ccc3[nH]nnc3c2)CCO1`, the “% Inhibition” value is on record as -15% and the Z score is reported as 1.99.
Turning to `NC(CC(=O)NC1CCCC1)=NOCCOc1ccc(F)cc1Cl`, the “% Inhibition” value was -11% and the Z score is reported as 1.34.
Consider `CCNC(=O)c1nc(N(C)C)c2c(C)scc2n1`, for which the “% Inhibition” value was determined as 7% and the Z score is recorded as -0.81.
As for `CCn1ccc(C(=O)N[C@H]2CCOC[C@@H]2OC)n1`, the “% Inhibition” value is recorded as -7% and the Z score amounted to 0.83.
Regarding `CCCN(CCC)C(=O)CCc1ccccc1O`, the “% Inhibition” value was -11% and the Z score is listed as 1.76.
Turning to `COc1cccc(NC(=O)CN2CCN(Cc3ccc(F)cc3)S2(=O)=O)c1`, the “% Inhibition” value is reported as -18% and the Z score is given as 1.57.
On to `Cc1noc(C)c1CCNS(=O)(=O)c1ccc(C(C)(C)C)s1`, for which the “% Inhibition” value is recorded as -8% and the Z score is on record as 0.77.
Consider `C[C@H](Oc1ccccc1N)C(F)(F)F`, for which the “% Inhibition” value was -8% and the Z score stood at 0.78.
On the same counts, the results for `CC(C)OCCCNC(=O)C[C@@H](Cn1cnnn1)c1ccc(Cl)cc1` are -10% and 1.3.
On the same counts, the results for `CC(C)CNC(=O)[C@@H]1CCN1S(=O)(=O)c1ccccc1` are -4% and 0.61.
On the same counts, the results for `CC(C)Cn1cc(NCc2nc(-c3cnn(C)c3)cs2)cn1` are -1% and 0.15.
On to `C#CCCNC(=O)c1ccnc(OCCOC)c1`, for which the “% Inhibition” value is listed as -4% and the Z score is 0.75.
With `Cc1ccc([C@@H]2C=C(c3ccccc3)N(CC(=O)NCc3ccccc3C)c3nnnn32)cc1`, the “% Inhibition” value is on record as -6% and the Z score turned out to be 0.59.
The corresponding values for `COC(=O)c1nc(NC(=O)c2cc(-c3ccc4c(c3)CCO4)[nH]n2)sc1C` are -10% and 1.03.
On the same counts, the results for `CC(C)c1nc([C@@H]2CCCCCN2Cc2nnc(C3CC3)o2)no1` are 3% and -0.38.
As for `CC(C)c1nnc([C@H](C)NC(=O)C2(N3CCOCC3)CCCCC2)o1`, the “% Inhibition” value was -15% and the Z score is 1.57.
On the same counts, the results for `CC(C)(C)OC(=O)NC[C@H]1CCCN(C(=O)c2cccn3ccnc23)C1` are -4% and 0.59.
For the molecule `CCO[C@H]1CN(Cc2noc(C3CCCC3)n2)C[C@@H]1O`, the “% Inhibition” value was -1% and the Z score is listed as 0.1.
For the molecule `CC(C)CC[C@H](C)N1CCC(n2cc(C3CC3)nn2)CC1`, the “% Inhibition” value is listed as -3% and the Z score worked out at 0.45.
As to `O=C1CC[C@H](C(=O)NCC(O)c2cc3ccccc3s2)N1` (stereo not given in full), the “% Inhibition” value is 2% and the Z score was -0.38.
With `CN1c2cccnc2CN(C(=O)Nc2ccc(OC(F)(F)F)cc2)CC[C@H]1CO`, the “% Inhibition” value is on record as 7% and the Z score is given as -0.86.
In the case of `Cc1ccc(C)c(N/C(=N\OCc2ccc(Cl)cc2)c2nonc2N)c1`, the “% Inhibition” value was -1% and the Z score is reported as 0.28.
On to `COc1ccc(CNC(=O)c2ccc(-c3nc(CN4CCc5ccccc54)c(C)o3)cc2)c(OC)c1`, for which the “% Inhibition” value is -13% and the Z score came to 1.89.
On to `O=C1CN(c2nnc(C(F)(F)F)s2)CCN1CC1CCCC1`, for which the “% Inhibition” value is recorded as -5% and the Z score was 0.49.
The corresponding values for `CCCCC(=O)Nc1cc(NC(=O)c2c[nH]nc2C(C)C)ccc1OC` are -14% and 1.83.
The corresponding values for `Fc1cccc(F)c1CNC[C@@H]1NCCc2ccccc21` are 47% and -5.59.
The corresponding values for `CC1CN(S(=O)(=O)c2cccc(C(=O)Nc3ccccc3N(C)C)c2)CC(C)O1` (stereo not given) are 5% and -0.56.
`CCCc1ncncc1C(=O)NCC[C@H]1CCOC1`: the “% Inhibition” value was -2% and the Z score amounted to 0.49.
The corresponding values for `Cc1cccc(C)c1N1CCc2cnn(C(=O)Nc3cccc(Cl)c3)c21` are 13% and -1.63.
On the same counts, the results for `COc1nccc(-c2cccc(-n3cccn3)c2)c1C#N` are -9% and 0.92.
In the case of `CCNC(=O)N1CCC2(CC1)C[C@@H](c1ccccc1)C(=O)N(C1CC1)C2`, the “% Inhibition” value was -13% and the Z score is 1.61.
The corresponding values for `Cn1c(CNC(=O)C2CCC2)nc2c1CN(S(=O)(=O)c1ccc(Cl)cc1)CC2` are -10% and 1.1.
The corresponding values for `COc1ccc(N2CCN(c3cc(C)nn4cnnc34)CC2)cc1` are -14% and 2.34.
As to `CC(=Cc1csc(-c2ccccn2)n1)c1cnccn1`, the “% Inhibition” value is recorded as -9% and the Z score was 0.93.
For `Cc1cc2c(cc1C)N(C(=O)COc1cccnc1)CC2`, the “% Inhibition” value is -2% and the Z score was 0.22.
For `CCCOc1ccc(N2C(=O)C3ON(C(CC(=O)O)c4ccccc4)C(c4ccccc4)C3C2=O)cc1` (stereo not given), the “% Inhibition” value stood at 2% and the Z score is -0.36.
On to `O=C(NCc1cccnc1)NC1CCCC1Oc1ccccc1` (stereo not given), for which the “% Inhibition” value was -8% and the Z score is reported as 0.86.
The corresponding values for `NC(=O)c1cnc2n1CCN(C(=O)COc1ccccc1)C2` are -8% and 0.8.
For the molecule `O=C(c1cc(C2CC2)n[nH]1)N1CCOCC1`, the “% Inhibition” value was -14% and the Z score is on record as 1.56.
As for `CCN1C[C@H](CN(C)C(=O)c2ccoc2)Oc2ccccc21`, the “% Inhibition” value is -8% and the Z score came out at 0.7.
For `CC(C)(C)OC(=O)N1CCC(OC(=O)n2ccnc2)CC1`, the “% Inhibition” value is -4% and the Z score is recorded as 0.52.
On to `CN1CCN(CC(=O)NCC2(Cc3ccccc3)CCCC2)CC1`, for which the “% Inhibition” value is on record as 1% and the Z score is listed as -0.11.
Consider `CC(NCC1COC(C)(C)O1)c1cc(Cl)c(N)c(Cl)c1` (stereo not given), for which the “% Inhibition” value was 2% and the Z score is -0.28.
As for `O=C(NCCc1c[nH]cn1)c1ccc2c(c1)C(=O)N(C1CCCCCC1)C2=O`, the “% Inhibition” value was -1% and the Z score is given as 0.19.
For `CCCn1cc(CNc2ncc(CC)cn2)cn1`, the “% Inhibition” value is -2% and the Z score was 0.37.
Regarding `O=C(c1n[nH]c2c1CCC2)N1CCO[C@H](c2ccccc2)C1`, the “% Inhibition” value was -2% and the Z score was determined as 0.26.
Turning to `O=S(=O)(N[C@H]1CCCc2cn(CC(F)(F)F)nc21)c1cccnc1`, the “% Inhibition” value is -7% and the Z score was 0.7.
On the same counts, the results for `CCCN(C(=O)c1ccccc1OCC)c1nc(-c2ccc(C3CCCCC3)cc2)cs1` are -9% and 1.41.
Turning to `COC(=O)NC(C(=O)N1CCCC(CNC(=O)c2ccncc2Cl)C1)C(C)C` (stereo not given), the “% Inhibition” value is -5% and the Z score came out at 0.42.
With `CCCCNC(=O)N1CCN(c2nc(CCC)nc3onc(-c4ccccc4)c23)CC1`, the “% Inhibition” value is given as 3% and the Z score is recorded as -0.49.
As for `CC(C)N1CCC(CC(=O)NCCn2cc(Cl)cn2)CC1`, the “% Inhibition” value stood at 0% and the Z score is listed as -0.04.
For `Cc1nnc(C23CC(CN2C(=O)NC[C@H](C)Oc2ccc(C(C)C)cc2)C3)o1`, the “% Inhibition” value is reported as -10% and the Z score is 1.64.
With `C[C@@H](c1nccs1)N(C)C(=O)c1cnc(-c2cccnc2)nc1`, the “% Inhibition” value stood at 2% and the Z score was -0.26.
`COc1ccc(N(CC(=O)NCCC#N)C(C)C)cc1F`: the “% Inhibition” value is reported as -11% and the Z score was determined as 1.64.
Consider `CCN(CC)c1ccc(C(C#N)N2CCOC(C)C2)cc1` (stereo not given), for which the “% Inhibition” value is reported as -9% and the Z score was 1.28.
For the molecule `Cc1nc2c(NC[C@@H]3C[C@H](CO)N(C)[C@@H]3c3ccccc3F)ncnc2o1`, the “% Inhibition” value was -12% and the Z score was found to be 1.68.
On the same counts, the results for `COCC1(C(=O)N2CCCN(CC3CC3)[C@H](C(C)C)C2)CCC1` are -4% and 0.87.
For `O=C(c1ccoc1)N(Cc1ccco1)[C@H]1CCS(=O)(=O)C1`, the “% Inhibition” value was 14% and the Z score is reported as -1.88.
Turning to `COc1ccc(CNC(=O)C2CCC(Cn3c(=O)[nH]c4ccsc4c3=O)CC2)cc1` (stereo not given), the “% Inhibition” value is on record as -11% and the Z score was 1.1.
Take `Cc1csc(-c2noc(Cc3c[nH]c4ccccc34)n2)n1`: the “% Inhibition” value is recorded as 6% and the Z score is listed as -1.15.
For the molecule `CCOCCC1(C(=O)N(C)CCN(C)C(=O)[C@H]2CC[C@H](CC)CC2)CCC1`, the “% Inhibition” value is listed as -1% and the Z score amounted to 0.16.
